Reference: patent US20220041702A1 (Innovent, published 2022)

Columns and labels:
[1] = biological target: T1, GITR expressed on cell surface (CHO cells overexpressing GITR) (Homo sapiens (Human), UniProt Q9Y5U5 26-241); test: FACS on CHO cells overexpressing GITR
T1 construct: also called GITR on cell surface
T1 sequence: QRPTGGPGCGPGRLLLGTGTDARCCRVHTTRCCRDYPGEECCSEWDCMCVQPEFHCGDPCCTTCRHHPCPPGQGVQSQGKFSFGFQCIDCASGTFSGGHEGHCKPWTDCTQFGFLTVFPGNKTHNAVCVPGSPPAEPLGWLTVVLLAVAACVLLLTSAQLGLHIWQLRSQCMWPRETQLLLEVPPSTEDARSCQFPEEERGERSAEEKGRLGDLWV

human GITR-His = biological target: T2, human GITR-His (human, UniProt Q9Y5U5 26-161); test: ForteBio Octet BLI, antibody on AHC tip, human GITR-His 50 nM in solution, monovalent
T2 construct: Bought soluble protein; also called GIR-H5228-1MG
T2 sequence (looked up): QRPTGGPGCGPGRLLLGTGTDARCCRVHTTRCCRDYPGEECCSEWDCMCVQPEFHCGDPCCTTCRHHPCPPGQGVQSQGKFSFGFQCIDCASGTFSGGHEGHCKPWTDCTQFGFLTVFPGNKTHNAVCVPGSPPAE
Procedure: A ForteBio affinity assay was performed according to the method reported in the literature (Estep, P, et al., High throughput solution Based measurement of antibody-antigen affinity and epitope binning MAbs, 2013, 5(2): p. 270-278). Briefly, the AHC sensor (Pall, Catalog No.: 1506091) was immersed in a SD buffer (PBS 1×, BSA 0.1%, Tween 20 0.05%) and equilibrated at room temperature, half an hour before the experiment. […] The anti-human IgG Fc biosensor AHC was immersed in each well containing the antibody solution, and immersed at room temperature for 600 s to load the samples. The sensor was then washed in the SD buffer until it returned to the baseline, and then immersed in a well containing 100 μL of the antigen solution to monitor the binding of the antibody to the antigen. The sensor was then transferred to a well containing 100 μL of the SD buffer to monitor the antibody dissociation. The rotation speed was 400 rpm and the temperature was 30° C. The background-corrected association and dissociation curves were fitted by the Octet analysis software (ForteBio) to generate the binding rate constant (kₒₙ) and dissociation rate constant (kdis), which are then used to calculate the equilibrium dissociation constant (KD).

- EC50 [1]: 0.606 nM
- Kd (human GITR-His): 2.57 nM
- koff (human GITR-His): 0.000602 s⁻¹
- kon (human GITR-His): 234000 M⁻¹ s⁻¹
B1: hcIgG-10 (Fc fusion)
chain: QVQLQESGGGLVQPGGSLRLSCAASGFAFGSSHMSWVRRAPGKGLEWVSTIHSGGGFGDYANSVQGRFTISRDVAKNTLYLQMNSLKPEDTAIYYCALATDWRKPPGQGTQVTVSS[… human IgG1 Fc …]
notes: VHH-Fc heavy-chain-only antibody; also called parent monospecific antibody against GITR; parent antibody hcIgG-10
